What is called cell viability is a read-out of living cells in per cent, often relative to untreated cells.

For one data set, the system named is H4. The experiment in a line: cell viability relative to siNT1 (ATP content); H4 human neuroglioma and GL261 mouse glioma; higher = less toxic. As to conditions: siRNA concentration 10 nM; 96 h; human.
In a further data set the test system is GL261. The description is as above. The note with it: siRNA concentration 25 nM; 96 h; mouse.

Shown are siRNA guide strands that differ only in the seed, positions 2 to 7.
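Further: cells reverse transfected with siRNA duplexes via lipid reagent, ATP read by luminescence, triplicate wells, values scaled to mean viability with non-targeting control siNT1.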

As to UUGCCCAACAUGUAAACCA, the figures for the cell viability in the data set on H4 and in the data set with GL261 were 65.1% and 49.3%, respectively.

As for UUGCCCCACAUGUAAACCA, the cell viability with H4 worked out at 61.3%; in the data set on GL261, 30.1%.

UUGCCCGACAUGUAAACCA: the figures for the cell viability with H4 and in the data set with GL261 were 79.5% and 46.8%, respectively.

For the sequence UUGCCCUACAUGUAAACCA, the values for the cell viability in the data set on H4 and with GL261 were 41.2% and 27.3%, respectively.

Turning to UUGCCGAACAUGUAAACCA, the figures for the cell viability in the data set on H4 and in the data set on GL261 were 64.6% and 39%, respectively.

As for UUGCCGCACAUGUAAACCA, the cell viability with H4 was 53%; in the data set on GL261 it was 23%.

UUGCCGGACAUGUAAACCA: the cell viability is 35.2% in the data set on H4 and 36.7% in the data set with GL261.

Turning to UUGCCGUACAUGUAAACCA, the cell viability was 57.8% with H4 and 26% in the data set on GL261.

Turning to UUGCCUAACAUGUAAACCA, the cell viability in the data set on H4 turned out to be 93.2%; with GL261, 49%.

UUGCCUCACAUGUAAACCA: the results for the cell viability in the data set with H4 and with GL261 were 52.4% and 50.9%, respectively.

On to UUGCCUGACAUGUAAACCA, for which the cell viability with H4 stood at 21%; in the data set on GL261, 53.7%.

As for UUGCCUUACAUGUAAACCA, the cell viability in the data set with H4 came out at 29%; in the data set with GL261 it was 33%.

Consider UUGCGAAACAUGUAAACCA, for which the cell viability with H4 was 98.7%; in the data set on GL261 it was 55.1%.

On to UUGCGACACAUGUAAACCA, for which the cell viability was found to be 51.8% in the data set on H4 and 22% with GL261.

As for UUGCGAGACAUGUAAACCA, the cell viability with H4 was found to be 80.1%; in the data set on GL261, 78.8%.

As for UUGCGAUACAUGUAAACCA, the cell viability with H4 stood at 88.8%; in the data set on GL261, 33.9%.

With UUGCGCAACAUGUAAACCA, the cell viability in the data set on H4 stood at 96.3%; in the data set with GL261, 63.3%.

Regarding UUGCGCCACAUGUAAACCA, the cell viability stood at 46.1% with H4 and 19.7% in the data set with GL261.

In the case of UUGCGCGACAUGUAAACCA, the figures for the cell viability in the data set with H4 and in the data set on GL261 were 70.8% and 60.8%, respectively.

Take UUGCGCUACAUGUAAACCA: the cell viability in the data set on H4 amounted to 98.6%; in the data set with GL261, 50.5%.

With UUGCGGAACAUGUAAACCA, the results for the cell viability with H4 and in the data set with GL261 were 77.5% and 44.7%, respectively.

UUGCGGCACAUGUAAACCA: the results for the cell viability in the data set on H4 and with GL261 were 60.3% and 25.3%, respectively.

On to UUGCGGGACAUGUAAACCA, for which the cell viability came to 73.8% with H4 and 41.5% in the data set on GL261.

Consider UUGCGGUACAUGUAAACCA, for which the figures for the cell viability with H4 and in the data set on GL261 were 53.3% and 28.6%, respectively.

UUGCGUAACAUGUAAACCA: the cell viability with H4 amounted to 106%; in the data set with GL261, 68.7%.

As for UUGCGUCACAUGUAAACCA, the cell viability in the data set on H4 was 82.6%; with GL261, 35.5%.

For UUGCGUGACAUGUAAACCA, the cell viability in the data set with H4 came to 77.1%; with GL261, 45.9%.

Take UUGCGUUACAUGUAAACCA: the cell viability in the data set with H4 was 79.2%; in the data set on GL261, 49.1%.

As for UUGCUAAACAUGUAAACCA, the cell viability with H4 was found to be 87.7%; with GL261, 51.9%.

UUGCUACACAUGUAAACCA: the cell viability stood at 13% in the data set on H4 and 39.5% with GL261.

On to UUGCUAGACAUGUAAACCA, for which the cell viability amounted to 62.7% in the data set on H4 and 62.9% with GL261.

For UUGCUAUACAUGUAAACCA, the cell viability in the data set with H4 is 47.9%; with GL261, 52.3%.

As to UUGCUCAACAUGUAAACCA, the values for the cell viability in the data set with H4 and in the data set on GL261 were 78.8% and 49.9%, respectively.

As for UUGCUCCACAUGUAAACCA, the cell viability in the data set with H4 came to 33.6%; in the data set with GL261 it was 30.3%.

For UUGCUCGACAUGUAAACCA, the cell viability with H4 turned out to be 104%; in the data set with GL261, 49.4%.

As to UUGCUCUACAUGUAAACCA, the cell viability in the data set with H4 was determined as 56.7%; in the data set on GL261, 43.9%.

For the sequence UUGCUGAACAUGUAAACCA, the values for the cell viability with H4 and with GL261 were 61.6% and 40.6%, respectively.

With UUGCUGCACAUGUAAACCA, the figures for the cell viability in the data set on H4 and with GL261 were 55.3% and 20.7%, respectively.

Regarding UUGCUGGACAUGUAAACCA, the cell viability in the data set with H4 is 47.3%; with GL261 it was 41.5%.

As to UUGCUGUACAUGUAAACCA, the figures for the cell viability in the data set with H4 and with GL261 were 62.3% and 19.5%, respectively.

In the case of UUGCUUAACAUGUAAACCA, the cell viability came out at 101% with H4 and 86.7% in the data set with GL261.

For UUGCUUCACAUGUAAACCA, the cell viability was 50.4% with H4 and 46.9% in the data set on GL261.

Take UUGCUUGACAUGUAAACCA: the cell viability with H4 came to 91.3%; in the data set on GL261, 53.8%.

Consider UUGCUUUACAUGUAAACCA, for which the results for the cell viability with H4 and in the data set with GL261 were 101% and 64.9%, respectively.

In the case of UUGGAAAACAUGUAAACCA, the cell viability in the data set on H4 turned out to be 93.3%; in the data set with GL261 it was 51.5%.

Consider UUGGAACACAUGUAAACCA, for which the cell viability in the data set with H4 turned out to be 80.9%; with GL261 it was 37.5%.

With UUGGAAGACAUGUAAACCA, the cell viability amounted to 77.6% in the data set on H4 and 49.7% in the data set with GL261.

Regarding UUGGAAUACAUGUAAACCA, the cell viability is 63.6% in the data set with H4 and 55.6% in the data set on GL261.

Take UUGGACAACAUGUAAACCA: the cell viability with H4 amounted to 53.7%; in the data set with GL261, 30.6%.

Take UUGGACCACAUGUAAACCA: the cell viability with H4 was 63.5%; with GL261, 42.8%.

For the sequence UUGGACGACAUGUAAACCA, the cell viability stood at 83.1% in the data set with H4 and 38.9% in the data set on GL261.

Consider UUGGACUACAUGUAAACCA, for which the results for the cell viability with H4 and in the data set on GL261 were 23.8% and 19.6%, respectively.

In the case of UUGGAGAACAUGUAAACCA, the cell viability in the data set with H4 is 50.2%; in the data set with GL261 it was 50.5%.

UUGGAGCACAUGUAAACCA: the cell viability in the data set on H4 amounted to 16.6%; in the data set with GL261 it was 20.6%.

In the case of UUGGAGGACAUGUAAACCA, the cell viability in the data set with H4 came out at 33.2%; in the data set with GL261, 30.6%.

As for UUGGAGUACAUGUAAACCA, the values for the cell viability with H4 and in the data set on GL261 were 65.1% and 44.9%, respectively.

Regarding UUGGAUAACAUGUAAACCA, the cell viability is 84.2% in the data set with H4 and 81.1% in the data set on GL261.

Take UUGGAUCACAUGUAAACCA: the cell viability is 37.3% with H4 and 38.8% with GL261.

UUGGAUGACAUGUAAACCA: the cell viability in the data set with H4 came to 76%; in the data set with GL261, 58.2%.

Take UUGGAUUACAUGUAAACCA: the cell viability in the data set with H4 was found to be 93.1%; in the data set with GL261, 59.5%.

In the case of UUGGCAAACAUGUAAACCA, the cell viability in the data set with H4 is 73.5%; in the data set with GL261 it was 39.7%.

With UUGGCACACAUGUAAACCA, the cell viability in the data set on H4 is 50.8%; in the data set with GL261 it was 27.9%.

For UUGGCAGACAUGUAAACCA, the cell viability in the data set on H4 worked out at 72%; in the data set with GL261 it was 21.4%.

On to UUGGCAUACAUGUAAACCA, for which the cell viability is 89.4% in the data set on H4 and 22.8% with GL261.

As for UUGGCCAACAUGUAAACCA, the cell viability was 48.5% with H4 and 83.7% with GL261.

Values taken from the supplement of paper PMC8948288.
